Hit rate of the full screen: of about 44,000 compounds, about 340 (0.77%) were called active. About 5% were inconclusive and are not listed. Calls follow the shape of the dose curve; as a rule, active = well fitted inhibition curve with a large enough effect; inconclusive = small, poorly fitted or top-dose-only effect; inactive = flat fitted curve, though single readings scatter. This is one part of the list.
assay: Acumen qHTS Assay for Inhibitors of the mTORC1 Signaling Pathway in MEF (Tsc2-/-, p53-/-) Cells: Sytravon; conditions: phospho-rpS6 immunofluorescence/PI, 24 h; series mostly up to 38.3 µM; activity change, negative = inhibition: at the top concentration; also: nearly all actives have a fitted effect of over 50% in size;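 as to activity change, negative = inhibition: plate controls were DMSO for no effect and rapamycin for full effect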
Summary of the method: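 Cell-based qHTS: Tsc2-/- p53-/- MEF, 24 h cpd, 37 °C; fix/perm, anti-phospho-S6 Alexa-488 + PI; Acumen 488 nm scan; pS6/PI ratio, % positive cells; rapamycin 7.5 nM = inhibition ref; PI count = viability.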
Potency is read from the fitted curve at half-maximal effect.

Activity change, negative = inhibition, inactive:
Cc1c(Cl)cccc1NS(=O)(=O)c1ccc2[nH]cc(C(=O)NC3CCCC3)c(=O)c2c1 -0.331%
Cc1ccc(S(=O)(=O)c2nc(-c3cccs3)oc2N2CCCCC2)cc1 -0.171%
COc1ccc2c(c1)c1c(c(=O)n(-c3ccc(OC)c(OC)c3)c(=O)n1Cc1ccccc1C)n2C -4.83%
CC(=O)c1cccc(NS(=O)(=O)c2ccc3[nH]c4c(c3c2)CCCCCC4)c1 -6.13%
Cc1ccc(-n2ncc(C(=O)NCCN3CCN(C)CC3)c2C2CCN(C(=O)OC(C)(C)C)CC2)c(C)c1 -0.675%
COc1ccc(OC)c(S(=O)(=O)Nc2cc3c(cc2C)n(C)c(=O)c(=O)n3C)c1 -5.52%
CN(Cc1ccccc1)C(=O)CN1C(=O)CSc2ccc(S(=O)(=O)N3CCOCC3)cc21 3.82%
COc1ccc(N(C(=O)/C=C\C(=O)Nc2ccc(Cl)cc2)C(C(=O)NCc2ccco2)c2ccc(C)cc2)cc1 (stereo unspecified) -0.549%
O=C(c1noc2c1CCCCC2)N1CCN(c2ccc(Cl)cc2)CC1 9.8%
COc1ccccc1NC(=O)Cn1c(=O)n(Cc2ccc3c(c2)OCO3)c(=O)c2oc3ccccc3c21 -5.33%
CCc1ccc(-c2cn3c(n2)sc2cc(C(=O)NCCc4ccc(OC)cc4OC)ccc23)cc1 -3.1%
C#CC(C)(C)NS(=O)(=O)c1cc(-c2nnc(Nc3ccc(C)cc3)c3ccccc23)ccc1C -5.03%
Cc1ccc(NC(=O)CN(c2ccccc2)S(=O)(=O)N(C)C)cc1Cl -8.57%
Cc1ccc(NC(=O)NCc2ccc3c(c2)CCN3C(=O)c2ccccc2)c(Cl)c1 -0.393%
NS(=O)(=O)c1ccc(CCNC(=O)CCCCCn2c(=O)[nH]c3ccccc3c2=O)cc1 -1.76%
COc1ccc(NC(=O)c2cn(CC(C)C)c(=O)c3cc(OC)c(OC)cc23)cc1Cl 3.32%
Cc1ccc(NC(=O)c2nn(C)c3c2CS(=O)(=O)c2ccccc2-3)c(Cl)c1 0.4%
Oc1c(C(c2ccccc2)N2CCC3(CC2)OCCO3)sc2nc(-c3ccco3)nn12 (stereo unspecified) -0.312%
Cc1nc(N2CCOCC2)c2c(C(=O)NCc3cccc(Cl)c3)c(C)oc2n1 7.12%
CCOC(=O)Cc1ccc(NC(=O)Nc2cccc(OCc3cc(=O)n4cc(C)ccc4n3)c2)cc1 3.4%
COc1ccc(-c2nc3c(c(SCC(=O)Nc4ccc(C(=O)O)cc4)n2)Cc2ccccc2O3)cc1 -1.62%
O=C(CCCCCn1c(=O)c2sccc2n(CC(=O)Nc2cccc(Cl)c2)c1=O)NCc1ccc2c(c1)OCO2 -12.2%
CCc1cccc(NC(=O)CSc2ncc3c(n2)-c2ccc(Cl)cc2N(Cc2ccccc2)S3(=O)=O)c1 0%
COc1cccc(C(=O)NC2(C(F)(F)F)C(=O)Nc3c2c(=O)[nH]c(=O)n3-c2ccc(C)cc2)c1 (stereo unspecified) 2.02%
CCc1c(C)sc2c1CCN(C(=O)Nc1cc(OC)c(OC)c(OC)c1)C2c1ccccc1 (stereo unspecified) 12.4%
CCCCN(C)CCNC(=O)c1ccc2c(=O)n(CCc3ccccc3)c(=O)[nH]c2c1 -16.3%
CCc1ccc(NC(=O)C(NS(=O)(=O)c2cccs2)C(C)C)cc1 (stereo unspecified) -18.8%
Cn1c(=O)c2c(-c3ccccc3)n3c(c2n(C)c1=O)C(c1ccccc1[N+](=O)[O-])Nc1ccccc1-3 (stereo unspecified) 1.27%
Cn1c(=O)c2c(c3ccccc31)OC(=O)CC2c1ccc(C(F)(F)F)cc1 (stereo unspecified) 4.44%
O=C(Nc1ccc2oc(-c3cccc4c(Br)cccc34)nc2c1)c1ccc(F)cc1 -0.774%
CCOC(=O)c1oc2ccc(S(=O)(=O)n3nc(-c4ccccc4OC)cc3N)cc2c1C 2.8%
O=C(COC(=O)c1cc(-c2cccs2)nc2ccccc12)c1ccccc1 0.538%
CCCN(CCC)CCCNC(=O)Cn1cnc2sc(C)c(S(=O)(=O)N3CCCCC3)c2c1=O -1.46%
CCCN(Cc1cccs1)C(=O)Nc1cc(Cl)c(OC)cc1OC -11.1%
O=C(c1ccc2c(c1)N(Cc1ccccc1F)C(=O)c1ccccc1S2(=O)=O)N1CCOCC1 3.62%
Cc1ccc(-c2nc3nc(C)cc(N4CCN(c5cc(Cl)ccc5C)CC4)n3n2)cc1 -7.42%
COc1ccc(-c2cc(C(=O)Oc3ccccc3)c3cc(C)ccc3n2)cc1 5.7%
CCn1c(=O)n(-c2ccc(C)c(F)c2)c(=O)c2sc3ccccc3c21 3.06%
COc1cccc(-n2c(SCC(=O)Nc3cc(C)ccc3C)nc3c(oc4ccccc43)c2=O)c1 -3.34%
CCOCCCNC(=O)c1ccc2nc(CCc3ccccc3)oc2c1 -0.44%
COc1ccc(C2=NC3(CCCCC3)N(CC(=O)Nc3ccc(C(C)C)cc3)C2=O)cc1 -3.15%
COc1cccc(CN2CCc3nc(Nc4ccc5c(c4)OCCO5)ncc3C2)c1 21.1%
Cc1ccc2nc(N(Cc3cccnc3)C(=O)Cc3ccccc3)sc2c1 -4.1%
CCOC(=O)c1ccccc1NC(=O)Cn1ncc2c([nH]c3ccccc32)c1=O -4.45%

Potency, active:
COc1ccc(NC(=O)CCS(=O)(=O)c2nc(-c3cccs3)cc(C(F)(F)F)n2)cc1OC 13.1 µM
COc1cccc(C2CC(=O)Nc3cc4c(cc32)OCCO4)c1OC (stereo unspecified) 14.7 µM

From PubChem BioAssay AID493208 (National Center for Advancing Translational Sciences (NCATS), 2011)
